# Key:
# Trypsin = Trypsin (Sus scrofa, UniProt P00761); test: Trypsin Assay; details: read-out: IC50 or % Inhibition Trpysin II (30 uM); cells printed as bare numbers (IC50)
# Human factor Xa = molecular target: T1, Human factor Xa (Homo sapiens, UniProt P00742); test: Xa Assay; assay type: biochemical; details: for IC50: cells printed as bare numbers (IC50), read-out: IC50 or % Inhibition Factor Xa (30 µM)
# T1 construct: leads from XII to XIIa to XIa to IXa and to the conversion of X to Xa; purchased Enzyme Research Laboratories, South Bend IN
# T1 sequence (P00742 235-488 limits assumed): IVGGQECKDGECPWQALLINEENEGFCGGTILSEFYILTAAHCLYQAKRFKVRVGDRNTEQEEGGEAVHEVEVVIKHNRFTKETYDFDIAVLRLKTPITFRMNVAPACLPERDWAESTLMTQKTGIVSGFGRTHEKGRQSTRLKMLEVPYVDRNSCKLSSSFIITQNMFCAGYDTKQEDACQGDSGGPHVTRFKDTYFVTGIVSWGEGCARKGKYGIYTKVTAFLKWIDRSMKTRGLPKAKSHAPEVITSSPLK
# T1 sequence (P00742 41-179 limits assumed): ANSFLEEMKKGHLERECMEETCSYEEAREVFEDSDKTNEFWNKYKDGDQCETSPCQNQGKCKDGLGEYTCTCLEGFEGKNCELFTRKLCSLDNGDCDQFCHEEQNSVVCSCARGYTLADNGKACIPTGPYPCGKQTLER
# TF-VIIa = molecular target: T2, TF-VIIa (Homo sapiens, UniProt P08709); test: TF-VIIa Assay; assay type: biochemical; details: % inhibition at 30 µM (cells with % or %@30, bare 0)
# T2 construct: An extrinsic pathway is initiated by the conversion of coagulation factor VII to VIIa by Xa; purchased American Diagnostica, Greenwich CT; Soluble TF was made in house in E. coli
# T2 sequence (P08709 213-466 limits assumed): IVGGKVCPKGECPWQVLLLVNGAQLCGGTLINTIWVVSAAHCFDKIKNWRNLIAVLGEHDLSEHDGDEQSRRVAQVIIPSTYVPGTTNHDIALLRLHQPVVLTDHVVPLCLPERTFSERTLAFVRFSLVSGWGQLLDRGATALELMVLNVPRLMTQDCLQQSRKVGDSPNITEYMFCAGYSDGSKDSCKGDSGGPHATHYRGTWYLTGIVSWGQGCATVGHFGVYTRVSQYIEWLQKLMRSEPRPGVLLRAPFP
# T2 sequence (P08709 61-212 limits assumed): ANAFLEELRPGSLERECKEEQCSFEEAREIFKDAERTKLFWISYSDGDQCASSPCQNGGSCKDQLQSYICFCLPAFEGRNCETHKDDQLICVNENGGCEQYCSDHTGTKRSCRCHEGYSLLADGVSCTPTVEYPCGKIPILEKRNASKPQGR
# T2 sequence (P13726 33-251 partner limits assumed): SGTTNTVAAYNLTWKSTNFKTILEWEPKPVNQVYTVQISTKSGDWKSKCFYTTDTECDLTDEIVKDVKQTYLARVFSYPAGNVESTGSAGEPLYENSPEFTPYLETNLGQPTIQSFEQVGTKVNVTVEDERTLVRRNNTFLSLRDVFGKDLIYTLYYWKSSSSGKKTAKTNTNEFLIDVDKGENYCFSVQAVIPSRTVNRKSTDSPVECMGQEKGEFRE
# Trypsin, sequence (P00761 9-231): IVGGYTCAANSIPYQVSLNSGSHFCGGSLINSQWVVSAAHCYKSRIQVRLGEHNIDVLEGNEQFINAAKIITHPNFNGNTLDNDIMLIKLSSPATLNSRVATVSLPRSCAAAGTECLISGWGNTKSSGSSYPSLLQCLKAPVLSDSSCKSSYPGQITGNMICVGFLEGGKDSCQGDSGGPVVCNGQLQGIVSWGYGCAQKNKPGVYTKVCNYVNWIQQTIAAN
IC50 (Trypsin),IC50 (Human factor Xa),IC50 or % Inhibition TF-VIIa (30 µM) (TF-VIIa),"IC50 or % Inhibition Factor Xa (30 µM) (Human factor Xa; % inhibition at 30 µM (cells with % or %@30, bare 0))",Compound
200 nM,–,–,–,CCNc1nc(Cl)c(-c2cccc(N)c2)n(CC(=O)NCc2ccc(C(=N)N)cc2)c1=O [1526-12]
200 nM,> 30000 nM,–,–,CCC(CC)Nc1nc(Cl)c(-c2ccccc2)n(CC(=O)NCc2ccc(C(=N)N)cc2)c1=O [1522-11]
200 nM,> 30000 nM,–,–,N=C(N)c1ccc(CNC(=O)Cn2c(-c3ccccc3)c(Cl)nc(NCCCCO)c2=O)cc1 [1522-05]
170 nM,> 30000 nM,–,–,CC(C)Nc1nc(Cl)c(-c2cccc(N)c2)n(CC(=O)NCc2ccc(C(=N)N)cc2)c1=O [1526-24]
200 nM,> 30000 nM,–,–,N=C(N)c1ccc(CNC(=O)Cn2c(-c3ccccc3)c(Cl)nc(NCCO)c2=O)cc1 [1522-02]
140 nM,–,–,–,N=C(N)c1ccc(CNC(=O)Cn2c(-c3cccc(O)c3)c(Cl)nc(NC3CCC3)c2=O)cc1 [Example 67]
200 nM,> 30000 nM,–,–,N=C(N)c1ccc(CNC(=O)Cn2c(-c3ccccc3)c(Cl)nc(NCCCO)c2=O)cc1 [1522-41]
150 nM,> 30000 nM,–,–,N=C(N)c1ccc(CNC(=O)Cn2c(-c3ccccc3)c(Cl)nc(NCCCCCCO)c2=O)cc1 [1522-07]
350 nM,> 30000 nM,–,–,N=C(N)c1ccc(CNC(=O)Cn2c(-c3ccccc3)c(Cl)nc(N3CCCC3)c2=O)cc1 [1522-27]
200 nM,> 30000 nM,–,–,C#CCNc1nc(Cl)c(-c2ccccc2)n(CC(=O)NCc2ccc(C(=N)N)cc2)c1=O [1522-21]

# Continued, compound first:
Compound,IC50 (Trypsin),IC50 (Human factor Xa),IC50 or % Inhibition TF-VIIa (30 µM) (TF-VIIa),"IC50 or % Inhibition Factor Xa (30 µM) (Human factor Xa; % inhibition at 30 µM (cells with % or %@30, bare 0))"
C=CCNc1nc(Cl)c(-c2ccccc2)n(CC(=O)NCc2ccc(C(=N)N)cc2)c1=O [1517-38],330 nM,–,–,–
CNc1nc(Cl)c(-c2ccccc2)n(CC(=O)NCc2ccc(C(=N)N)cc2)c1=O [1517-39],430 nM,–,–,–
CCNc1nc(Cl)c(-c2ccccc2)n(CC(=O)NCc2ccc(C(=N)N)cc2)c1=O [1517-46],360 nM,–,–,–
COc1cccc(-c2c(Cl)nc(NCCc3ccccc3)c(=O)n2CC(=O)NCc2ccc(C(=N)N)cc2)c1 [1515-29],2200 nM,> 30000 nM,–,–
N=C(N)c1ccc(CNC(=O)Cn2c(-c3ccc(C(F)(F)F)cc3)c(Cl)nc(NCCc3ccccc3)c2=O)cc1 [1515-32],1400 nM,> 30000 nM,–,–
CC(C)Nc1nc(Cl)c(-c2ccccc2)n(CC(=O)NCc2ccc(C(=N)N)cc2)c1=O [1517-44],220 nM,–,–,–
CC(C)(C)C1CCC(Nc2nc(Cl)c(-c3ccccc3)n(CC(=O)NCc3ccc(C(=N)N)cc3)c2=O)CC1 (stereo not drawn) [1512-17],–,–,39%,4%
N=C(N)c1ccc(CNC(=O)Cn2c(-c3ccccc3C(F)(F)F)c(Cl)nc(NCCc3ccccc3)c2=O)cc1 [1515-36],5400 nM,> 30000 nM,–,–
N=C(N)c1ccc(CNC(=O)Cn2c(-c3ccccc3)c(Cl)nc(NCCc3ccccc3)c2=O)cc1 [1471-15],240 nM,–,–,–
N=C(N)c1ccc(CNC(=O)Cn2c(-c3ccccc3)c(Cl)nc(NCc3cccc(C(F)(F)F)c3)c2=O)cc1 [1507-01],900 nM,–,–,–
COc1ccc(-c2c(Cl)nc(NCCc3ccccc3)c(=O)n2CC(=O)NCc2ccc(C(=N)N)cc2)cc1 [1471-39],290 nM,–,–,–

# — patent EP1586565A1, “Substituted polycyclic aryl and heteroaryl pyrazinones useful for selective inhibition of the coagulation cascade” (Pharmacia Corporation, priority 1999, dated 2000)
